# Results from PubChem BioAssay AID1832 (Broad Institute, 2009).
# Screen size: about 300,000 compounds; about 1,100 (0.37%) were called active. The shares of active, inactive and inconclusive entries below differ from those in the screen.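 How the source made its calls: active means inhibition past about -25% in most replicates, and total fluorescence under double the plate's negative control median (limit read from the data); inconclusive means replicates evenly split on the limit, or fluorescence at least double controls; inactive means too little inhibition in most replicates.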
# Biological target: Zinc finger protein mex-5 (Caenorhabditis elegans) (UniProt Q9XUB2)
# Sequence of UniProt Q9XUB2 (Q9XUB2 whole entry, looked up): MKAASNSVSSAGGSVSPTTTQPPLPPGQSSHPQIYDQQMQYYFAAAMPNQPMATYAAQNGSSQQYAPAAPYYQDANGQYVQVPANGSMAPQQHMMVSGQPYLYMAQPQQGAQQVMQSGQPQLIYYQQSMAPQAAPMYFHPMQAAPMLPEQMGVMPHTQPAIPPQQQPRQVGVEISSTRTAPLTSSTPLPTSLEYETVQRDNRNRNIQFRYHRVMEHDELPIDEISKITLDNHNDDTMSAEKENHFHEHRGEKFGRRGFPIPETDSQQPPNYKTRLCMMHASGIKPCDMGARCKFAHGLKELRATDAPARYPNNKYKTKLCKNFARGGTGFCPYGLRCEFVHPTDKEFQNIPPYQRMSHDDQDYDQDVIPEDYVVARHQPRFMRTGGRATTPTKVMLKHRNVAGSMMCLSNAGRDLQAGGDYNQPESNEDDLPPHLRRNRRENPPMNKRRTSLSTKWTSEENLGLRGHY
# Assay: MEX-5 zinc finger RNA-binding disruptors – biochemical, C. elegans, fluorescence polarization, MLPCN library, primary screen (AID 1832);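 further: 0% = DMSO and -100% = 5 µM competing unlabeled TCR2 RNA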
# Conditions: MEX-5/FITC-TCR2 RNA binding, at 10 µM, stronger effect = lower value
row,SMILES,activity score (negative = inhibition of binding)
1,COCCCNC(=O)C(C#N)c1nc2ccccc2nc1N1CCCC1 (stereo not drawn),inconclusive: 0.173%
2,Cc1ccc(S(=O)(=O)NNc2nc3ccccc3nc2C(F)(F)F)cc1,inconclusive: -15.8%
3,Cc1ccc2nc(/C(C#N)=C\c3ccc(N4CCOCC4)o3)[nH]c2c1,inconclusive: 80.9% [fluorescent]
4,COc1ccccc1/C=C1/SC(=S)N(CCC(=O)Nc2cccnc2)C1=O,inconclusive: -16.1%
5,Oc1ccc(-c2csc(Nc3ccccn3)n2)cc1O,active: -32%
6,O=C(Cc1nc2ccccc2[nH]c1=O)c1ccccc1,active: -61.3%
7,O=C(Nc1nc2c(s1)CN(Cc1ccccc1)CC2)c1cccc(S(=O)(=O)N2CCc3ccccc32)c1,inactive: -21.7%
8,CCOC(=O)c1c2c3c(cccc3n(C)c1=O)C(=O)c1ccccc1-2,inconclusive: -14.6%
9,CC1CCCCN1S(=O)(=O)c1ccc(C(=O)N2CCOCC2)cc1 (stereo not drawn),inactive: 0.318%
10,O=C1/C(=C/c2cccc(F)c2)Oc2cc(O)ccc21,inconclusive: -71.6% [fluorescent]
11,CC1CCN(Cc2c(O)ccc3c2O/C(=C\c2ccco2)C3=O)CC1,inconclusive: -66.1% [fluorescent]
12,O=C(c1ccccc1)[C@@H]1[C@@H]2C(=O)N(c3ccc(F)cc3)C(=O)[C@@H]2C2CCCN21 (stereo partly drawn),inconclusive: -24%
13,COc1ccc(CC(=O)NNC2=Nc3cccc4cccc2c34)cc1,inconclusive: -18.5%
14,Cc1ccc(-n2c(SCC(=O)N(C)C)nnc2-c2ccco2)cc1,inactive: 0.38%
15,O=c1oc2ccccc2cc1-c1nc(-c2cccs2)cs1,inconclusive: -21%
16,O=C(Cn1c(NCCO)nc2ccccc21)N1CCN(Cc2ccccc2)CC1,inactive: -0.0177%
17,COc1cc(/C=C2\SC(=Nc3ccc(Cl)c(C(=O)O)c3)NC2=O)c(Br)c(Br)c1O,inconclusive: 39.6% [fluorescent]
18,COc1ccc(/C(O)=C/c2nc3ccccc3n(-c3ccccc3)c2=O)cc1,inconclusive: 0.276% [fluorescent]
19,CS/C(=N\S(=O)(=O)c1cccs1)Nc1cccc(Cl)c1C,inconclusive: -24.7%
20,Cc1sc(-c2ccccn2)nc1OC(=O)c1cccc(Cl)c1Cl,inconclusive: -18.6%
21,Cc1ccccc1NC(=O)/C(C#N)=C/c1ccc(-c2ccc(Cl)c(C(=O)O)c2)o1,inconclusive: -24.5%
22,CCc1cc(=O)oc2cc(C)cc(OC(C)C(=O)O)c12 (stereo not drawn),inconclusive: -13.6%
23,N#Cc1cc(C(=O)c2ccccc2O)cn(-c2nccs2)c1=O,inconclusive: -59.5% [fluorescent]
